Publication PMC4242493
This is one part of the list. The list includes weakly bound sequences.

The sequences below were run against MaxL homodimer (UniProt P61244) (assay: universal protein-binding microarray (PBM)). Settings: PBS-based mixture, 10 nM His-tagged protein dimer, 2% milk, 200 ng/uL BSA, 50 ng/uL salmon testes DNA, 0.02% TX-100; detection with Alexa 488 anti-His …; high values mean tight binding; most listed sequences are background and not binding sites; double strand, one strand shown.
UniProt P61244, sequence (P61244 whole entry): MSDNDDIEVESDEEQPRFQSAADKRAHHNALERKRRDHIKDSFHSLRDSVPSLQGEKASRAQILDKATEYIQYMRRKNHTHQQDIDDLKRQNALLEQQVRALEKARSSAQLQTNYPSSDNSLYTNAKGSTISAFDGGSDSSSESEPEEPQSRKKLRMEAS
With GCTCTCGA the binding signal (normalized occupancy) was 0.0695.
CGTATAAA gave a binding signal (normalized occupancy) of 0.0772.
In the case of CTCCGCTA, the binding signal (normalized occupancy) is reported as 0.071.
AAAGCGCC was tested, and the binding signal (normalized occupancy) was 0.0648.
AGAGCGGA gave a binding signal (normalized occupancy) of 0.0697.
CACGACCA showed a binding signal (normalized occupancy) of 0.0817.
In the case of GTGTATCA, the binding signal (normalized occupancy) is reported as 0.0882.
Work on CGGAAGAA yielded a binding signal (normalized occupancy) of 0.0742.
Sequence ACTCTTGA has a binding signal (normalized occupancy) of 0.0749.
With ACATATGA the binding signal (normalized occupancy) was 0.0952.
ATTGCCTG gave a binding signal (normalized occupancy) of 0.0717.
GAGCGTTA was tested, and the binding signal (normalized occupancy) was 0.0762.
Sequence ACCGAGCG has a binding signal (normalized occupancy) of 0.0658.
GCTGTGAC gave a binding signal (normalized occupancy) of 0.0796.
GCAAAGCA showed a binding signal (normalized occupancy) of 0.0727.
In the case of AGAGGTAC, the binding signal (normalized occupancy) is reported as 0.07.
CCACCGCG was tested, and the binding signal (normalized occupancy) was 0.0731.
ACCATCGC gave a binding signal (normalized occupancy) of 0.0769.
AGGTACCG showed a binding signal (normalized occupancy) of 0.0708.
For ATAGCGCG, the binding signal (normalized occupancy) was 0.0771.
ACATGCTA showed a binding signal (normalized occupancy) of 0.106.
ACGAGGAA showed a binding signal (normalized occupancy) of 0.0843.
With GTTGCAAA the binding signal (normalized occupancy) was 0.0706.
For CACAATAC, the binding signal (normalized occupancy) was 0.0813.
CATCACGG was tested, and the binding signal (normalized occupancy) was 0.0829.
With CGATCCGC the binding signal (normalized occupancy) was 0.0734.
GCAGTTCA gave a binding signal (normalized occupancy) of 0.0696.
Work on CACTAGCA yielded a binding signal (normalized occupancy) of 0.0786.
For CCTCTTCC, the binding signal (normalized occupancy) was 0.0725.
AACACTCT gave a binding signal (normalized occupancy) of 0.0798.
For AGACCGTA, the binding signal (normalized occupancy) was 0.0748.
TCGTACCA was tested, and the binding signal (normalized occupancy) was 0.0784.
In the case of CGTCGACA, the binding signal (normalized occupancy) is reported as 0.0772.
In the case of ATGATTGC, the binding signal (normalized occupancy) is reported as 0.0863.
In the case of ATTCACCC, the binding signal (normalized occupancy) is reported as 0.0772.
GTGGGATA was tested, and the binding signal (normalized occupancy) was 0.0873.
With CCATTGGG the binding signal (normalized occupancy) was 0.0717.
CTGAGTAA gave a binding signal (normalized occupancy) of 0.0757.
With ACCGGCGA the binding signal (normalized occupancy) was 0.0659.
For ATCTTCTA, the binding signal (normalized occupancy) was 0.0773.
In the case of GTAAGACA, the binding signal (normalized occupancy) is reported as 0.0774.
In the case of GTGCCTCA, the binding signal (normalized occupancy) is reported as 0.0779.
CCATTATC was tested, and the binding signal (normalized occupancy) was 0.0782.
ACGCCCCC was tested, and the binding signal (normalized occupancy) was 0.0803.
ACGTCTGG gave a binding signal (normalized occupancy) of 0.0743.
ATACCAAG gave a binding signal (normalized occupancy) of 0.0759.
In the case of TCGAGGAA, the binding signal (normalized occupancy) is reported as 0.0734.
With CCATGCGG the binding signal (normalized occupancy) was 0.145.
Work on CATAGAGC yielded a binding signal (normalized occupancy) of 0.0703.
In the case of GCTATTAC, the binding signal (normalized occupancy) is reported as 0.0796.
In the case of AAAGGCGT, the binding signal (normalized occupancy) is reported as 0.0786.
ATCGACGC gave a binding signal (normalized occupancy) of 0.0747.
GCAGCTAA gave a binding signal (normalized occupancy) of 0.0644.
ACTACTAT was tested, and the binding signal (normalized occupancy) was 0.0796.
AATACGGC gave a binding signal (normalized occupancy) of 0.0752.
Sequence ACTGACCC has a binding signal (normalized occupancy) of 0.071.
AGGCAGGC was tested, and the binding signal (normalized occupancy) was 0.0704.
CTGTTCTA gave a binding signal (normalized occupancy) of 0.0715.
AGTTTGGA showed a binding signal (normalized occupancy) of 0.0697.
Work on GGGTCCTA yielded a binding signal (normalized occupancy) of 0.0766.
In the case of GTCTTCTA, the binding signal (normalized occupancy) is reported as 0.0715.
Sequence ATTCACGA has a binding signal (normalized occupancy) of 0.0811.
With CGTGGCAA the binding signal (normalized occupancy) was 0.0854.
Sequence GATGTAAC has a binding signal (normalized occupancy) of 0.0737.
With AGGTGATG the binding signal (normalized occupancy) was 0.0834.
For ACACAATG, the binding signal (normalized occupancy) was 0.0862.
For GACGGGAC, the binding signal (normalized occupancy) was 0.0691.
Sequence CGCAGCCA has a binding signal (normalized occupancy) of 0.0737.
CCATGAGG was tested, and the binding signal (normalized occupancy) was 0.112.
With ATGTTGCC the binding signal (normalized occupancy) was 0.0821.
For CGAATGGA, the binding signal (normalized occupancy) was 0.0769.
With AATGGTCC the binding signal (normalized occupancy) was 0.076.
AGAGATGG was tested, and the binding signal (normalized occupancy) was 0.0775.
For AAGGGCGT, the binding signal (normalized occupancy) was 0.0776.
For AAAGCTCT, the binding signal (normalized occupancy) was 0.0662.
For CGTGGTGA, the binding signal (normalized occupancy) was 0.0873.
In the case of AGGGTACT, the binding signal (normalized occupancy) is reported as 0.0763.
Work on AACTGCTA yielded a binding signal (normalized occupancy) of 0.0748.
GGGGTTAC was tested, and the binding signal (normalized occupancy) was 0.0754.
In the case of AAGTTGGG, the binding signal (normalized occupancy) is reported as 0.0725.
ATAAGACA gave a binding signal (normalized occupancy) of 0.0814.
AATCCACG gave a binding signal (normalized occupancy) of 0.0813.
AGCGCGAA showed a binding signal (normalized occupancy) of 0.0706.
For CAACGAGC, the binding signal (normalized occupancy) was 0.0753.
For CTTCCGCA, the binding signal (normalized occupancy) was 0.0717.
Work on ATATTAAC yielded a binding signal (normalized occupancy) of 0.0811.
CTGCGCCA showed a binding signal (normalized occupancy) of 0.071.
GTACAATA was tested, and the binding signal (normalized occupancy) was 0.0724.
Sequence AACACTGT has a binding signal (normalized occupancy) of 0.075.
Work on GCCTGGCA yielded a binding signal (normalized occupancy) of 0.0722.
With GACGCTCC the binding signal (normalized occupancy) was 0.0684.
ACTACGGA was tested, and the binding signal (normalized occupancy) was 0.0737.
With ACCGCTGG the binding signal (normalized occupancy) was 0.0691.
For CCTATGAG, the binding signal (normalized occupancy) was 0.0757.
With ACTGGTAA the binding signal (normalized occupancy) was 0.0679.
Sequence CCATCGAA has a binding signal (normalized occupancy) of 0.0774.
With CTGGTGAC the binding signal (normalized occupancy) was 0.0739.
AGCTGTGC was tested, and the binding signal (normalized occupancy) was 0.076.
For AGCGAGAA, the binding signal (normalized occupancy) was 0.0736.
CATCTTCA showed a binding signal (normalized occupancy) of 0.0786.
AGCCCCGC showed a binding signal (normalized occupancy) of 0.0752.
For TACTAAAA, the binding signal (normalized occupancy) was 0.0751.
AGTGACAT gave a binding signal (normalized occupancy) of 0.0809.
TATTCGCA was tested, and the binding signal (normalized occupancy) was 0.0764.
With CATGCACC the binding signal (normalized occupancy) was 0.0986.
With AAGTAGCT the binding signal (normalized occupancy) was 0.077.
With CTACATAA the binding signal (normalized occupancy) was 0.0783.
In the case of GTAACAGA, the binding signal (normalized occupancy) is reported as 0.0764.
With CAGAGTGG the binding signal (normalized occupancy) was 0.0742.
Sequence CGGACACG has a binding signal (normalized occupancy) of 0.0853.
CACGCCCC was tested, and the binding signal (normalized occupancy) was 0.0836.
ACATCTCA gave a binding signal (normalized occupancy) of 0.082.
For CACAATAG, the binding signal (normalized occupancy) was 0.0745.
CAACAGAA showed a binding signal (normalized occupancy) of 0.0741.
For CGCTATCC, the binding signal (normalized occupancy) was 0.0788.
With ACGGAACT the binding signal (normalized occupancy) was 0.0707.
For TGCAATAA, the binding signal (normalized occupancy) was 0.0785.
Work on ACCCGACT yielded a binding signal (normalized occupancy) of 0.0759.
GTGGGCAA gave a binding signal (normalized occupancy) of 0.0738.
CACTCTTC was tested, and the binding signal (normalized occupancy) was 0.0777.
Sequence GTCTTTGA has a binding signal (normalized occupancy) of 0.0743.
GTAATCAC was tested, and the binding signal (normalized occupancy) was 0.0838.
CATGATGC gave a binding signal (normalized occupancy) of 0.0927.
CGAGAAAG was tested, and the binding signal (normalized occupancy) was 0.0717.
CCTTCATC gave a binding signal (normalized occupancy) of 0.0752.
In the case of ATAAGGAT, the binding signal (normalized occupancy) is reported as 0.0805.
Work on ACTCGGGC yielded a binding signal (normalized occupancy) of 0.0729.
CACTAGCG gave a binding signal (normalized occupancy) of 0.0725.
AAGAACCC was tested, and the binding signal (normalized occupancy) was 0.0724.
For GACCTTCC, the binding signal (normalized occupancy) was 0.0735.
For AACTGGGC, the binding signal (normalized occupancy) was 0.0659.
CATCCATG showed a binding signal (normalized occupancy) of 0.0885.
In the case of GAACAAAC, the binding signal (normalized occupancy) is reported as 0.0755.
Work on ACGTCGTG yielded a binding signal (normalized occupancy) of 0.0854.
CACCGGTA gave a binding signal (normalized occupancy) of 0.0714.
Sequence CCCGTCAC has a binding signal (normalized occupancy) of 0.0706.
Work on AGGCTGAC yielded a binding signal (normalized occupancy) of 0.0721.
Work on GCCCTTAC yielded a binding signal (normalized occupancy) of 0.0732.
Sequence TACTATCA has a binding signal (normalized occupancy) of 0.0801.
CCCCGGCG gave a binding signal (normalized occupancy) of 0.0717.
AGATATCA showed a binding signal (normalized occupancy) of 0.0855.
AGTCACAT was tested, and the binding signal (normalized occupancy) was 0.101.
GCTGTTGA showed a binding signal (normalized occupancy) of 0.0741.
Sequence AAGTTGCC has a binding signal (normalized occupancy) of 0.0725.
GCGACCGC gave a binding signal (normalized occupancy) of 0.0711.
AAAGTTAT was tested, and the binding signal (normalized occupancy) was 0.0744.
AATAAACC showed a binding signal (normalized occupancy) of 0.073.
In the case of AGCTACTC, the binding signal (normalized occupancy) is reported as 0.0687.
AACAGCAC showed a binding signal (normalized occupancy) of 0.0765.
Sequence AGATCGCA has a binding signal (normalized occupancy) of 0.077.
Sequence AATCTGCA has a binding signal (normalized occupancy) of 0.0834.
ACTCCCGG was tested, and the binding signal (normalized occupancy) was 0.0685.
TTCTAAAA was tested, and the binding signal (normalized occupancy) was 0.0721.
With CCAAACAA the binding signal (normalized occupancy) was 0.072.
In the case of AGTGGAGC, the binding signal (normalized occupancy) is reported as 0.0744.
CTGGCGAC showed a binding signal (normalized occupancy) of 0.0691.
ACTCCGCG was tested, and the binding signal (normalized occupancy) was 0.0742.
With CGATCGCA the binding signal (normalized occupancy) was 0.0798.
Sequence ATATCCAC has a binding signal (normalized occupancy) of 0.084.
ATTTCTTG gave a binding signal (normalized occupancy) of 0.0741.
GGGTAATA was tested, and the binding signal (normalized occupancy) was 0.0812.
Sequence AGATATTG has a binding signal (normalized occupancy) of 0.0757.
Sequence AGTGAGAA has a binding signal (normalized occupancy) of 0.0719.
TGCGACCA gave a binding signal (normalized occupancy) of 0.0803.
AAAAACGC gave a binding signal (normalized occupancy) of 0.0702.
ACAGCGCG gave a binding signal (normalized occupancy) of 0.0842.
GGGGGTGA was tested, and the binding signal (normalized occupancy) was 0.0836.
AAATCGAC was tested, and the binding signal (normalized occupancy) was 0.0703.
Work on AAAATAGG yielded a binding signal (normalized occupancy) of 0.076.
In the case of CCGCAACC, the binding signal (normalized occupancy) is reported as 0.0736.
CGGTCATA gave a binding signal (normalized occupancy) of 0.0757.
In the case of AGCCTAAG, the binding signal (normalized occupancy) is reported as 0.0763.
